Data from ChEMBL document CHEMBL4888484, “Replenishing the malaria drug discovery pipeline: Screening and hit evaluation of the MMV Hit Generation Library 1 (HGL1) against asexual blood stage Plasmodium falciparum ,using a nano luciferase reporter read-out” (2022).
Out of some 150,000 compounds screened, about 540 (0.36%) showed an effect of 50% or more. The list shows a part of the results.

test system: Plasmodium falciparum; assay: Primary screen in NF54 nanoGlo assay, in single point, at 2uM, 72h; a lower Z score goes with more inhibition; format: functional, Erythrocyte; conditions: timepoint 72 hour

SMILES	% Inhibition [%]	Z score
COc1ccc(N2C(=O)N[C@@H](CC(=O)NC(c3ccc(OC)c(OC)c3)C(C)C)C2=O)cc1 (some centres not stated)	7	-1.07
CC(C)C(=O)N(Cc1ccc(F)cc1)Cc1cc(-c2ccccc2)on1	-10	1.46
CC(C)Oc1nc(-c2cccc(C(F)(F)F)c2)n(-c2ccc(NC(=O)c3ccc4ccccc4c3)cc2)n1	-14	2.33
CCc1ccccc1N(C(C)=O)c1nc(CN2C(=O)c3ccccc3CS2(=O)=O)cs1	-1	0.15
O[C@H]1CN(C/C=C/c2ccc(F)cc2)C[C@@H]1N1CCCC1	-15	1.46
Cc1ccc(S(=O)(=O)N2CC3(C2)CC2(CCC2)C3)cc1	-8	1.43
Cc1cccc(F)c1S(=O)(=O)N1C[C@H](c2cn(C)cn2)[C@@H](N)C1	3	-0.59
CCN(C(=O)NCc1ccoc1C)[C@@H](C)CS(C)(=O)=O	1	-0.16
CC(C)C(=O)NC1CC[N+](Cc2csc(C3CCCCC3)n2)(Cc2csc(C3CCCCC3)n2)CC1	2	-0.3
COC(=O)c1c(NC(C)=O)c2cc(NCC(C)(C)C)cnc2n1CCc1ccc(OC)cc1	-7	0.87
Cc1noc([C@@H]2CN(C(=O)c3cscn3)C[C@H]2C(N)=O)n1	-11	1.68
CC[C@H](C)N(Cc1ccc(N(CC)CC)cc1OS(C)(=O)=O)C(=O)COC	-1	0.14
O=S1(=O)CC[C@H](NCCc2cscn2)c2cc(Cl)ccc21	-11	1.16
Cc1ccc(CNc2ccc(C(=O)NCc3cccnc3)cc2S(=O)(=O)N2CCOCC2)cc1	-7	1.38
Nc1c(-c2ccccc2)sc2ncccc12	3	-0.36
CN1CC[C@H](N(C)C(=O)c2ccc(-c3ccc4c(=O)[nH]ccc4c3)cc2)C1	-4	0.47
CC(=O)N1CCC(C(=O)Nc2ccc(F)cc2)(N(Cc2ccc(C)cc2)C(=O)c2ccc(C#N)cc2)CC1	-3	0.4
O=C(CNS(=O)(=O)c1ccc2ccccc2c1)N1CCC(c2nc3ccccc3o2)CC1	-16	2.33
Cc1c(Cl)cccc1S(=O)(=O)N1CCC[C@@H]1CS(=O)(=O)c1ccccc1	-3	0.53
Cc1nc(C(C)C)oc1C(=O)N[C@@H]1C(=O)N(C)Cc2ccccc21	0	-0.01
CCCCNCC#CCOc1cc(C)ccc1C(C)C	2	-0.3
